Reference: PubChem BioAssay AID624296 (National Center for Advancing Translational Sciences (NCATS), 2012)
In all, about 350,000 compounds went through this assay and about 9,900 (2.8%) were called active. Inconclusive results, whose numbers are uncertain, are shown with a selection of clear calls. Calls follow the shape of the dose curve; as a rule, active = well fitted activation curve with a large enough effect; inconclusive = small, poorly fitted or top-dose-only effect; inactive = no such curve, though single readings can be large or run the other way. No potency is given beside an inconclusive call; the fits are too rough.

Assay: A quantitative high throughput screen for small molecules that induce DNA re-replication in MCF 10a normal breast cells. Also: nearly all actives have a fitted effect of over 50% in size. As to activity, positive = re-replication: % of control where 0% means no effect.
Settings: MCF 10A DNA re-replication, Hoechst nuclear intensity, 48 h; activity, positive = re-replication: at 46.1 µM (top of the series)
Potency is read from the fitted curve at half-maximal effect; tags tell the direction and shape of the fitted curve.

Compound | Potency | activity, positive = re-replication
O=c1[nH]c(/C=C\c2cccc(Cl)c2)nc(O)c1[N+](=O)[O-] | inactive | –
O=C(CN1CCN(c2ccccn2)CC1)Nc1ccc(Br)cc1 | inconclusive [activator, partial curve, poor fit] | –
COC(=O)c1sc(NC(=O)c2cc(-c3ccccc3)nc3ccccc23)c(C#N)c1C | inconclusive [activator, full curve, poor fit] | –
NC(=N\N=CCc1ccccc1)/C(N)=N/N=CCc1ccccc1 | inactive | –
Cc1cccn2c(=O)c(/C=N/O)c(NCc3ccccc3)nc12 | inconclusive [activator, single point] | –
CCc1ccc(NC(=S)N(CCN2CCCCC2)Cc2ccco2)cc1 | inconclusive [activator, single point] | –
O=C(NCCc1c[nH]c2ccccc12)c1cccc(S(=O)(=O)Nc2ccccc2Cl)c1 | inactive | –
CN(C)CCCNc1cc(Cl)c(S(=O)(=O)N2CCCCC2)cc1C(=O)O | active: 2.59 µM | –
CCOc1ccc(C(=O)Nc2c3c(nn2C(C)(C)C)CSC3)cc1OCC | inconclusive [activator, single point] | –
Nn1cnnc1N/N=C\c1ccc(-c2ccccc2[N+](=O)[O-])o1 | inconclusive [activator, partial curve, poor fit] | –
CC(C)c1c(C(=O)N/N=C/c2ccc(OCc3ccc(F)cc3)cc2)nnn1-c1nonc1N | inactive | –
O=C(NCCc1ccccc1)c1cc(-c2ccccc2)c(N2CCOCC2)s1 | inconclusive [activator, partial curve] | –
CC(C)(C)C(=O)NC(=S)NNC(=O)c1ccncc1 | inactive | –
CCCCN1C(=O)NC(NS(=O)(=O)c2ccc(N)cc2)(C(F)(F)F)C1=O (stereo not drawn) | inconclusive [activator, single point] | –
Fc1cccc(Nc2ncnc3sc4c(c23)CCC4)c1 | inconclusive [activator, partial curve, poor fit] | –
C#C[C@]1(O)CC[C@H]2[C@@H]3CCC4=CCCC[C@@H]4[C@H]3C(=C)C[C@@]21CC | active: 13.3 µM | –
O=C(Nc1ccccc1)NC1(C(=O)NCc2cccs2)CCCCC1 | inconclusive [activator, single point] | –
Cc1ccc2cc(C#N)c(NCc3ccco3)nc2c1 | inconclusive [activator, partial curve] | –
Cc1cc(C)c(C)c(S(=O)(=O)N2CCC(C(=O)NNC(=O)c3ccccc3O)CC2)c1C | inconclusive [activator, single point] | –
COc1ccc(O)c(C(=O)c2cnn(-c3ccccc3)c2)c1 | – | inconclusive: -24.2% [activator]
CSc1nc2ccccc2cc1/C=C(\C#N)c1cccc(Cl)c1 | active: 8.2 µM | –
Cc1ccccc1C(=O)NNC(=O)C1CCCN(c2ncccn2)C1 (stereo not drawn) | inconclusive [activator, partial curve] | –

Compound | Potency | activity, positive = re-replication
CCN(CC(=O)Nc1cc(Cl)ccc1C)c1ncnc2sc(C)c(C)c12 | inconclusive [activator, single point] | –
O=C(CC1CCCCC1)N1CCCC(c2nc(-c3ccc(S(=O)(=O)N4CCCC4)cc3)no2)C1 (stereo not drawn) | inconclusive [activator, single point] | –
CC(=O)NC(c1cc(Cl)c2cccnc2c1O)C1CC1 (stereo not drawn) | inconclusive [activator, full curve] | –
COc1cc(/C=C/c2[nH]c(=O)[nH]c(=O)c2[N+](=O)[O-])ccc1OCCC(C)C | inconclusive [activator, single point] | –
Cc1ccc(C(=O)C2CCN(CC(=O)NC3CCCCC3)CC2)cc1 | inactive | –
COC(=O)c1c(Cc2ccccc2Cl)c[nH]c1C | inconclusive [activator, single point] | –
C[C@@H](CSc1ccc(Br)cc1)CN1CC[C@H](C(C)(C)C)CCC1=O | inactive | –
CCc1ccccc1N(CC)C(=O)CCc1nc(-c2ccc(C)cc2)no1 | inconclusive [activator, single point] | –
COc1cc(C(C(=O)NC(C)(C)C)N(Cc2ccc3c(c2)OCO3)C(=O)c2cnccn2)cc(OC)c1OC (stereo not drawn) | inconclusive [activator, single point] | –
CCOC(=O)C(=NC1CCS(=O)(=O)C1)NNc1ccc(Br)cc1 (stereo not drawn) | inconclusive [activator, single point] | –
Cc1ccc2nc(N3CC(C)OC(C)C3)nc(-c3ccccc3)c2c1 (stereo not drawn) | inconclusive [activator, partial curve, poor fit] | –
O=c1c(/C=N\NS(=O)(=O)c2ccccc2)coc2ccc(Cl)cc12 | inconclusive [activator, single point] | –
O=C(O)c1ccc(NS(=O)(=O)c2cccc(S(=O)(=O)c3ccc(Cl)c(Cl)c3)c2)cc1 | inactive | –
COCCCNC(=O)CC1C[C@H](C(=O)N2CCCCC2)[C@@]2(C)c3[nH]c4ccc(OC)cc4c3CCN2C1=O (stereo partly drawn) | inactive | –
Cc1ccnc(NC(=O)CCC(=O)N(CC(=O)NC2CCCCC2)Cc2ccccc2)c1 | inactive | –
COc1ccc2c(c1)c1nnc(SCC(=O)N3C(C)CCCC3C)nc1n2C (stereo not drawn) | inconclusive [activator, partial curve, poor fit] | –
Cc1ccc2nc(Nc3ccccc3)c(/C=N/O)c(=O)n2c1 | inconclusive [activator, partial curve] | –
CN(C(=O)c1cccc(NC(=O)Cc2ccc(NC(=O)C3CCN(C(=O)C4CCC4)CC3)cc2)c1)C1CCC1 | inconclusive [activator, partial curve, poor fit] | –
N#Cc1cc[n+](CC(=O)c2ccc(NC(=O)c3ccccc3)cc2)cc1 | inactive | –
Clc1ccc(-n2nnnc2Sc2ncnc3sccc23)cc1 | active: 10.3 µM | –
CC(=O)c1c(N2CCN(C)CC2)[nH]c(-c2ccccc2)nc1=S | inconclusive [activator, single point] | –
